Results on 63 sequences are retold here after article PMC12820563.

Some of the results follow. The list includes weakly bound sequences.

The target of the test is T1, MBP-FoxP3dN (UniProt Q99JB6).
T1 sequence: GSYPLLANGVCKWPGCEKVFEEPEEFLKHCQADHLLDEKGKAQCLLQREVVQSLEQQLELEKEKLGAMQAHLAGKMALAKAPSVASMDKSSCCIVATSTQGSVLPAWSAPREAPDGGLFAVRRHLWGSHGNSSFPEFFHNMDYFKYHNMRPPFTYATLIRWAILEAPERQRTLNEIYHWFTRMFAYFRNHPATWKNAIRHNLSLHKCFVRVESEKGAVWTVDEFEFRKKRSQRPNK
The test can be described thus: PD-seq (MBP pull-down with sequencing). The following applies: 20 mM Tris-HCl pH 7.5, 100 mM NaCl, 1.5 mM MgCl2, 0.4 uM protein, 0.1 uM dsDNA library, 30 min, room temperature, amylose pull-down; high values mean tight binding; double strand, one strand shown.
Regarding “GATGATTGTTCTCCCAGCTGATGAATTATTGGATTCGAGTAAACAAATTTTCCTAATCTTTCTGTTCAAGCGCCATCTAC”, the binding signal (RPM ratio (pull-down/input)) stood at 0.397.
For “GATGATTGTTCTCCCAGCTGATGAATTCTCATTATCGAGTAAACAAATTTTCCTAATCTTTCTGTTCAAGCGCCATCTAC”, the binding signal (RPM ratio (pull-down/input)) was found to be 0.533.
Consider “GATGATTGTTCTCCCAGCTGATGAATTGAGGTCATCGAGTAAACAAATTTTCCTAATCTTTCTGTTCAAGCGCCATCTAC”, for which the binding signal (RPM ratio (pull-down/input)) came to 0.501.
Then “GATGATTGTTCTCCCAGCTGATGAATTAGGTAAGTCGAGTAAACAAATTTTCCTAATCTTTCTGTTCAAGCGCCATCTAC”, with 0.37.
In the case of “GATGATTGTTCTCCCAGCTGATGAATTGTATCATTCGAGTAAACAAATTTTCCTAATCTTTCTGTTCAAGCGCCATCTAC” it was 2.63; in that of “GATGATTGTTCTCCCAGCTGATGAATTTTCACCATCGAGTAAACAAATTTTCCTAATCTTTCTGTTCAAGCGCCATCTAC”, 0.331; in that of “GATGATTGTTCTCCCAGCTGATGAATTAGCATGGTCGAGTAAACAAATTTTCCTAATCTTTCTGTTCAAGCGCCATCTAC”, 1.13.
For the sequence “GATGATTGTTCTCCCAGCTGATGAATTTGATTCCTCGAGTAAACAAATTTTCCTAATCTTTCTGTTCAAGCGCCATCTAC”, the binding signal (RPM ratio (pull-down/input)) is 2.35.
As to “GATGATTGTTCTCCCAGCTGATGAATTGTATGTGTCGAGTAAACAAATTTTCCTAATCTTTCTGTTCAAGCGCCATCTAC”, the binding signal (RPM ratio (pull-down/input)) came out at 3.75.
For “GATGATTGTTCTCCCAGCTGATGAATTCTTATTATCGAGTAAACAAATTTTCCTAATCTTTCTGTTCAAGCGCCATCTAC”, the binding signal (RPM ratio (pull-down/input)) is 0.726.
“GATGATTGTTCTCCCAGCTGATGAATTTGGCGGATCGAGTAAACAAATTTTCCTAATCTTTCTGTTCAAGCGCCATCTAC”: the binding signal (RPM ratio (pull-down/input)) was 0.335.
Then “GATGATTGTTCTCCCAGCTGATGAATTCAAGAGGTCGAGTAAACAAATTTTCCTAATCTTTCTGTTCAAGCGCCATCTAC”, with 0.218; and “GATGATTGTTCTCCCAGCTGATGAATTGCCAATTTCGAGTAAACAAATTTTCCTAATCTTTCTGTTCAAGCGCCATCTAC”, with 0.55.
Then “GATGATTGTTCTCCCAGCTGATGAATTGACAACATCGAGTAAACAAATTTTCCTAATCTTTCTGTTCAAGCGCCATCTAC”, with 2.61; and “GATGATTGTTCTCCCAGCTGATGAATTATGGAGTTCGAGTAAACAAATTTTCCTAATCTTTCTGTTCAAGCGCCATCTAC”, with 0.486.
As to “GATGATTGTTCTCCCAGCTGATGAATTCAAGTTTTCGAGTAAACAAATTTTCCTAATCTTTCTGTTCAAGCGCCATCTAC”, the binding signal (RPM ratio (pull-down/input)) was 0.454.
“GATGATTGTTCTCCCAGCTGATGAATTATTCTTCTCGAGTAAACAAATTTTCCTAATCTTTCTGTTCAAGCGCCATCTAC”: the binding signal (RPM ratio (pull-down/input)) is 0.297.
Then “GATGATTGTTCTCCCAGCTGATGAATTGATGGGCTCGAGTAAACAAATTTTCCTAATCTTTCTGTTCAAGCGCCATCTAC”, with 0.401.
Then “GATGATTGTTCTCCCAGCTGATGAATTCCCTCGGTCGAGTAAACAAATTTTCCTAATCTTTCTGTTCAAGCGCCATCTAC”, with 0.192; and “GATGATTGTTCTCCCAGCTGATGAATTCACACGCTCGAGTAAACAAATTTTCCTAATCTTTCTGTTCAAGCGCCATCTAC”, with 0.451; and “GATGATTGTTCTCCCAGCTGATGAATTCGGTCGATCGAGTAAACAAATTTTCCTAATCTTTCTGTTCAAGCGCCATCTAC”, with 0.29.
As to “GATGATTGTTCTCCCAGCTGATGAATTTCATAGTTCGAGTAAACAAATTTTCCTAATCTTTCTGTTCAAGCGCCATCTAC”, the binding signal (RPM ratio (pull-down/input)) came to 0.583.
In the case of “GATGATTGTTCTCCCAGCTGATGAATTGAGACCCTCGAGTAAACAAATTTTCCTAATCTTTCTGTTCAAGCGCCATCTAC” it was 0.404; in that of “GATGATTGTTCTCCCAGCTGATGAATTTTGCGGTTCGAGTAAACAAATTTTCCTAATCTTTCTGTTCAAGCGCCATCTAC”, 1.31.
“GATGATTGTTCTCCCAGCTGATGAATTCACGCACTCGAGTAAACAAATTTTCCTAATCTTTCTGTTCAAGCGCCATCTAC”: the binding signal (RPM ratio (pull-down/input)) was found to be 1.26.
In the case of “GATGATTGTTCTCCCAGCTGATGAATTAAGAGGGTCGAGTAAACAAATTTTCCTAATCTTTCTGTTCAAGCGCCATCTAC” it was 0.295.
Turning to “GATGATTGTTCTCCCAGCTGATGAATTTGCGTTCTCGAGTAAACAAATTTTCCTAATCTTTCTGTTCAAGCGCCATCTAC”, the binding signal (RPM ratio (pull-down/input)) was determined as 3.13.
Consider “GATGATTGTTCTCCCAGCTGATGAATTTCGTGACTCGAGTAAACAAATTTTCCTAATCTTTCTGTTCAAGCGCCATCTAC”, for which the binding signal (RPM ratio (pull-down/input)) was found to be 0.93.
For the sequence “GATGATTGTTCTCCCAGCTGATGAATTTCATGGTTCGAGTAAACAAATTTTCCTAATCTTTCTGTTCAAGCGCCATCTAC”, the binding signal (RPM ratio (pull-down/input)) worked out at 0.71.
In the case of “GATGATTGTTCTCCCAGCTGATGAATTTACGGACTCGAGTAAACAAATTTTCCTAATCTTTCTGTTCAAGCGCCATCTAC” it was 0.345; in that of “GATGATTGTTCTCCCAGCTGATGAATTTGCTTGCTCGAGTAAACAAATTTTCCTAATCTTTCTGTTCAAGCGCCATCTAC”, 6.22; in that of “GATGATTGTTCTCCCAGCTGATGAATTAAAGCACTCGAGTAAACAAATTTTCCTAATCTTTCTGTTCAAGCGCCATCTAC”, 0.606.
For “GATGATTGTTCTCCCAGCTGATGAATTAATTTACTCGAGTAAACAAATTTTCCTAATCTTTCTGTTCAAGCGCCATCTAC”, the binding signal (RPM ratio (pull-down/input)) was 3.63.
Then “GATGATTGTTCTCCCAGCTGATGAATTCGGGCAGTCGAGTAAACAAATTTTCCTAATCTTTCTGTTCAAGCGCCATCTAC”, with 0.317.
Then “GATGATTGTTCTCCCAGCTGATGAATTCCGAGGGTCGAGTAAACAAATTTTCCTAATCTTTCTGTTCAAGCGCCATCTAC”, with 0.291; and “GATGATTGTTCTCCCAGCTGATGAATTTGGTCATTCGAGTAAACAAATTTTCCTAATCTTTCTGTTCAAGCGCCATCTAC”, with 0.824; and “GATGATTGTTCTCCCAGCTGATGAATTGAAGCCCTCGAGTAAACAAATTTTCCTAATCTTTCTGTTCAAGCGCCATCTAC”, with 0.308.
In the case of “GATGATTGTTCTCCCAGCTGATGAATTATCAGTCTCGAGTAAACAAATTTTCCTAATCTTTCTGTTCAAGCGCCATCTAC” it was 0.422.
For the sequence “GATGATTGTTCTCCCAGCTGATGAATTCGGGAATTCGAGTAAACAAATTTTCCTAATCTTTCTGTTCAAGCGCCATCTAC”, the binding signal (RPM ratio (pull-down/input)) came out at 0.718.
In the case of “GATGATTGTTCTCCCAGCTGATGAATTCGCTGCATCGAGTAAACAAATTTTCCTAATCTTTCTGTTCAAGCGCCATCTAC” it was 1.02.
Consider “GATGATTGTTCTCCCAGCTGATGAATTTCCGTAATCGAGTAAACAAATTTTCCTAATCTTTCTGTTCAAGCGCCATCTAC”, for which the binding signal (RPM ratio (pull-down/input)) stood at 0.596.
With “GATGATTGTTCTCCCAGCTGATGAATTGATATAATCGAGTAAACAAATTTTCCTAATCTTTCTGTTCAAGCGCCATCTAC”, the binding signal (RPM ratio (pull-down/input)) is 0.673.
In the case of “GATGATTGTTCTCCCAGCTGATGAATTTCACGGGTCGAGTAAACAAATTTTCCTAATCTTTCTGTTCAAGCGCCATCTAC”, the binding signal (RPM ratio (pull-down/input)) was determined as 0.201.
In the case of “GATGATTGTTCTCCCAGCTGATGAATTAAACATTTCGAGTAAACAAATTTTCCTAATCTTTCTGTTCAAGCGCCATCTAC” it was 0.817; in that of “GATGATTGTTCTCCCAGCTGATGAATTGGCAGGATCGAGTAAACAAATTTTCCTAATCTTTCTGTTCAAGCGCCATCTAC”, 0.271.
In the case of “GATGATTGTTCTCCCAGCTGATGAATTGTTCGGGTCGAGTAAACAAATTTTCCTAATCTTTCTGTTCAAGCGCCATCTAC” it was 0.273; in that of “GATGATTGTTCTCCCAGCTGATGAATTGAATCATTCGAGTAAACAAATTTTCCTAATCTTTCTGTTCAAGCGCCATCTAC”, 0.789.
As for “GATGATTGTTCTCCCAGCTGATGAATTAGAAATTTCGAGTAAACAAATTTTCCTAATCTTTCTGTTCAAGCGCCATCTAC”, the binding signal (RPM ratio (pull-down/input)) worked out at 0.246.
Then “GATGATTGTTCTCCCAGCTGATGAATTTTCATGATCGAGTAAACAAATTTTCCTAATCTTTCTGTTCAAGCGCCATCTAC”, with 0.323.
In the case of “GATGATTGTTCTCCCAGCTGATGAATTCCCATATTCGAGTAAACAAATTTTCCTAATCTTTCTGTTCAAGCGCCATCTAC”, the binding signal (RPM ratio (pull-down/input)) was 0.358.
Then “GATGATTGTTCTCCCAGCTGATGAATTCCCGTGTTCGAGTAAACAAATTTTCCTAATCTTTCTGTTCAAGCGCCATCTAC”, with 0.47; and “GATGATTGTTCTCCCAGCTGATGAATTTAATCACTCGAGTAAACAAATTTTCCTAATCTTTCTGTTCAAGCGCCATCTAC”, with 0.559.
In the case of “GATGATTGTTCTCCCAGCTGATGAATTGGTAACTTCGAGTAAACAAATTTTCCTAATCTTTCTGTTCAAGCGCCATCTAC” it was 0.514.
Then “GATGATTGTTCTCCCAGCTGATGAATTGTGTTTATCGAGTAAACAAATTTTCCTAATCTTTCTGTTCAAGCGCCATCTAC”, with 8.53; and “GATGATTGTTCTCCCAGCTGATGAATTTTAGATGTCGAGTAAACAAATTTTCCTAATCTTTCTGTTCAAGCGCCATCTAC”, with 0.461; and “GATGATTGTTCTCCCAGCTGATGAATTCAACCTATCGAGTAAACAAATTTTCCTAATCTTTCTGTTCAAGCGCCATCTAC”, with 0.393.
As to “GATGATTGTTCTCCCAGCTGATGAATTAATTTTATCGAGTAAACAAATTTTCCTAATCTTTCTGTTCAAGCGCCATCTAC”, the binding signal (RPM ratio (pull-down/input)) was found to be 0.794.
With “GATGATTGTTCTCCCAGCTGATGAATTCTTAGGTTCGAGTAAACAAATTTTCCTAATCTTTCTGTTCAAGCGCCATCTAC”, the binding signal (RPM ratio (pull-down/input)) was 0.272.
As for “GATGATTGTTCTCCCAGCTGATGAATTGGCGTCGTCGAGTAAACAAATTTTCCTAATCTTTCTGTTCAAGCGCCATCTAC”, the binding signal (RPM ratio (pull-down/input)) is 0.961.
In the case of “GATGATTGTTCTCCCAGCTGATGAATTACGGCTTTCGAGTAAACAAATTTTCCTAATCTTTCTGTTCAAGCGCCATCTAC” it was 1.11; in that of “GATGATTGTTCTCCCAGCTGATGAATTCGAAAAATCGAGTAAACAAATTTTCCTAATCTTTCTGTTCAAGCGCCATCTAC”, 0.194.
In the case of “GATGATTGTTCTCCCAGCTGATGAATTTTAGGTGTCGAGTAAACAAATTTTCCTAATCTTTCTGTTCAAGCGCCATCTAC” it was 0.519; in that of “GATGATTGTTCTCCCAGCTGATGAATTTCCACTATCGAGTAAACAAATTTTCCTAATCTTTCTGTTCAAGCGCCATCTAC”, 0.392.
